# Experimental data as given in the supplement of paper PMC9446081.
# The whole screen tested about 39,000 compounds, of which about 220 (0.56%) showed activity. The list shows a part of the results.
# System: Escherichia coli K-12 BW25113
# Test: relative growth (OD600 normalised to plate interquartile mean) (fraction); higher = less growth inhibition, active = 0.2 or less
# Conditions: 50 µM; LB; incubation time: overnight (16-24 h)
# 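Further: static incubation at 37 °C against the wild-type strain, values averaged over two biological replicates.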
row,SMILES,relative growth
1,COc1ccc(S(=O)(=O)Nc2cccc3c2O[C@H](CN(C)C(=O)Nc2c(C)noc2C)[C@@H](C)CN([C@@H](C)CO)C3=O)cc1,inactive: 1.02
2,COc1ccc(NC(=O)N(C)C[C@H]2OCCCC[C@@H](C)Oc3ccc(NC(=O)Nc4ccc(F)cc4)cc3C(=O)N([C@H](C)CO)C[C@H]2C)cc1,inactive: 1.04
3,C[C@@H]1CN([C@@H](C)CO)C(=O)c2cc(C#CC3CCCCC3)cnc2O[C@@H]1CN(C)C(=O)c1ccncc1,inactive: 0.985
4,CCCNc1nc(=O)c(C)n[nH]1,inactive: 0.97
5,CC(=O)N1CCc2nc(N)sc2C1,inactive: 1
6,COCCN1CC[C@@H](CO)C1,inactive: 1
7,Nc1ncnc2nc(N3CCCCC3)[nH]c12,inactive: 1.01
8,Cl.Clc1ccc2c(c1)CCc1cccnc1C2=C1CCNCC1,inactive: 1.09
9,CCc1c(C)[nH]c2c(C#N)cnn2c1=O,inactive: 0.947
10,C[C@H]1CN([C@@H](C)CO)C(=O)c2cccc(NS(C)(=O)=O)c2O[C@@H]1CN(C)S(=O)(=O)c1ccc(F)cc1,inactive: 1
11,C[C@H]1CCCCO[C@H](CN(C)Cc2ccc3c(c2)OCO3)[C@@H](C)CN([C@@H](C)CO)C(=O)c2cc(NS(=O)(=O)c3cccs3)ccc2O1,inactive: 0.89
12,CN1CCN(C(=O)C[C@@H]2CC[C@@H]3[C@H](COc4ccc(NC(=O)C5CCOCC5)cc4C(=O)N3C)O2)CC1,inactive: 0.987
13,C[C@@H]1CN([C@@H](C)CO)C(=O)c2cc(C#Cc3cccnc3)cnc2O[C@H]1CN(C)Cc1ccc(F)cc1,inactive: 1
14,COCCNCc1ccc(-c2cc3nccc(Oc4ccc(NC(=S)NC(=O)Cc5ccc(F)cc5)cc4F)c3s2)nc1,inactive: 1
15,C[C@@H]1CCCCO[C@H](CN(C)S(=O)(=O)c2cn(C)cn2)[C@@H](C)CN([C@H](C)CO)C(=O)c2cc(NS(C)(=O)=O)ccc2O1,inactive: 1
16,CC(C)NC(=O)Nc1ccc2c(c1)C(=O)N([C@@H](C)CO)C[C@@H](C)[C@H](CN(C)S(=O)(=O)c1ccccc1)O2,inactive: 1
17,C[C@H]1CCCCO[C@H](CN(C)Cc2ccncc2)[C@@H](C)CN([C@@H](C)CO)C(=O)c2cc(NC(=O)Cc3ccccc3)ccc2O1,inactive: 1.04
18,Oc1ccc(OCc2ccccc2)cc1,inactive: 0.946
19,COc1ccc(CN(C)C[C@@H]2OCCCC[C@H](C)Oc3ccc(NS(=O)(=O)c4ccc(Cl)cc4)cc3C(=O)N([C@H](C)CO)C[C@H]2C)cc1,inactive: 0.984
20,C[C@H](CO)N1C[C@H](C)[C@H](CN(C)C(=O)c2ccncc2)OCCCC[C@H](C)Oc2ccc(NS(C)(=O)=O)cc2C1=O,inactive: 1.02
21,CCNC(=S)N1CCOCC1,inactive: 1.05

row,SMILES,relative growth
1,C[C@H]1CCCCO[C@@H](CN(C)Cc2ccc(C(F)(F)F)cc2)[C@@H](C)CN([C@@H](C)CO)C(=O)c2cc(NS(=O)(=O)c3ccccc3)ccc2O1,inactive: 1.01
2,C[C@H]1O[C@@H](O[C@@H]2[C@@H](OC(=O)/C=C/c3ccc(O)c(O)c3)[C@H](CO)O[C@H](OCCc3ccc(O)c(O)c3)[C@@H]2O[C@H]2OC[C@@H](O)[C@@H](O)[C@@H]2O)[C@@H](O)[C@@H](O)[C@@H]1O,inactive: 0.986
3,C[C@@H]1CCCCO[C@@H](CN(C)CC2CCCCC2)[C@H](C)CN([C@@H](C)CO)C(=O)c2cc(NS(=O)(=O)c3ccc(F)cc3)ccc2O1,inactive: 0.976
4,CC(=O)/C=C/c1ccc(-c2ccc([C@H]3CC(=O)C[C@@H](c4ccccc4)C34C(=O)c3ccccc3C4=O)cc2)cc1,inactive: 1.05
5,C[C@H](CO)N1C[C@H](C)[C@@H](CN(C)S(C)(=O)=O)Oc2ccc(NC(=O)Nc3ccccc3)cc2C1=O,inactive: 0.998
6,C[C@H]1CN([C@@H](C)CO)C(=O)c2cc(C#CC3(O)CCCC3)cnc2O[C@H]1CN(C)C(=O)Nc1ccc2c(c1)OCO2,inactive: 0.972
7,C[C@@H]1CCCCO[C@@H](CN(C)S(=O)(=O)c2cccs2)[C@@H](C)CN([C@@H](C)CO)C(=O)c2cc(NS(C)(=O)=O)ccc2O1,inactive: 1.02
8,C[C@@H]1CCCCO[C@@H](CN(C)Cc2ccc(Cl)c(Cl)c2)[C@@H](C)CN([C@H](C)CO)C(=O)c2cc(NS(=O)(=O)c3ccc(Cl)cc3)ccc2O1,inactive: 1.01
9,C[C@@H]1CCCCO[C@H](CN(C)C(=O)Cc2ccccc2)[C@@H](C)CN([C@H](C)CO)C(=O)c2cc(NC(=O)NC3CCCCC3)ccc2O1,inactive: 1.01
10,COC[C@]1(O)CCN(C(=O)CCN(C)S(C)(=O)=O)CC1(C)C,inactive: 1
11,C[C@@H]1CN([C@@H](C)CO)C(=O)c2cc(NS(=O)(=O)c3ccccc3)ccc2O[C@@H](C)CCCCO[C@H]1CN(C)Cc1ccc(C(=O)O)cc1,inactive: 0.996
12,CC(C)NC(=O)N(C)C[C@H]1OCCCC[C@@H](C)Oc2ccc(NC(=O)Nc3cccc4ccccc34)cc2C(=O)N([C@@H](C)CO)C[C@H]1C,inactive: 0.997
13,COCC(=O)Nc1ccc2c(c1)C(=O)N(C)[C@@H]1CC[C@@H](CC(=O)NCc3ccc(OC)cc3)O[C@@H]1CO2,inactive: 0.995
14,C=C1C[C@@H]2CC[C@@]34C[C@H]5O[C@H]6[C@@H](O3)[C@H]3O[C@H](CC[C@@H]3O[C@H]6[C@H]5O4)CC(=O)C[C@@H]3[C@@H](OC)[C@@H](C[C@H](O)CN)O[C@H]3C[C@H]3O[C@@H](CC[C@@H]1O2)C[C@@H](C)C3=C,inactive: 1.03
15,Cn1cccc1CNCCCN1CCOCC1,inactive: 1
16,C[C@@H]1CN([C@H](C)CO)C(=O)CCCn2cc(nn2)CO[C@H]1CN(C)Cc1cccc2c1OCCCO2,inactive: 0.992
17,C[C@H]1CN([C@@H](C)CO)C(=O)c2cc(NC(=O)Cc3cn(C)c4ccccc34)ccc2O[C@@H]1CN(C)C(=O)Nc1cccc2ccccc12,inactive: 1.03
18,CCCNC(=O)N(C)C[C@H]1Oc2cc(C#Cc3cccc(F)c3)ccc2S(=O)(=O)N([C@H](C)CO)C[C@H]1C,inactive: 0.979
19,COc1ccc2c3c([nH]c2c1)[C@@H](CO)N(CC1CCOCC1)C[C@]13CCN(CC1)C(=O)C1CCOCC1,inactive: 1.02
20,Cc1noc(C)c1NC(=O)N(C)C[C@H]1OCCCC[C@H](C)Oc2ccc(NC(=O)c3ccccc3)cc2C(=O)N([C@@H](C)CO)C[C@@H]1C,inactive: 1.01
21,COCC(=O)N(C)C[C@H]1Oc2cc(C#CCC3CCCC3)ccc2S(=O)(=O)N([C@@H](C)CO)C[C@H]1C,inactive: 1.03

row,SMILES,relative growth
1,CO[C@@H]1CN(C)C(=O)c2ccc(NC(=O)C3CC3)cc2OC[C@H](C)N(C(=O)Cc2ccccn2)C[C@@H]1C,inactive: 0.988
2,C[C@H]1CN([C@@H](C)CO)S(=O)(=O)c2ccc(-c3ccccc3F)cc2O[C@@H]1CN(C)Cc1cncnc1,inactive: 1
3,COc1ccc(NC(=O)Nc2ccc3c(c2)CC(=O)N([C@@H](C)CO)C[C@@H](C)[C@@H](CN(C)C(=O)Nc2cccc4ccccc24)O3)cc1,inactive: 0.972
4,C[C@H]1CCCCO[C@@H](CN(C)C(=O)c2ccccc2)[C@@H](C)CN([C@@H](C)CO)C(=O)c2cc(NC(=O)CCC(F)(F)F)ccc2O1,inactive: 0.996
5,O=C([C@H]1[C@H](CO)[C@H]2Cn3c(cccc3=O)[C@@H]1N2S(=O)(=O)c1ccccc1F)N1CCOCC1,inactive: 1.02
6,CS(=O)(=O)CCOC(=O)C1=CC(c2ccc(CO)cc2)=C[C@@H](C2CC2)N(Cc2cc3c(cc2Br)OCO3)C=C1C(=O)OCCS(C)(=O)=O,inactive: 1.03
7,C[C@@H]1CN([C@@H](C)CO)C(=O)c2cccc(NC(=O)Nc3ccc(F)cc3)c2O[C@H]1CN(C)C(=O)Nc1cccc2ccccc12,inactive: 1.02
8,C[C@@H]1CCCCO[C@H](CN(C)C(=O)C2CCCCC2)[C@H](C)CN([C@@H](C)CO)C(=O)c2cc(NC(=O)CCCCCC(=O)Nc3ccccc3N)ccc2O1,inactive: 0.962
9,C[C@H](CO)N1C[C@H](C)[C@H](CN(C)C(=O)Nc2ccc3c(c2)OCO3)Oc2ccc(NC(=O)Cn3cnnn3)cc2CC1=O,inactive: 1.01
10,O=C(NCCO)c1cc2ccccc2c(=O)s1,inactive: 0.975
11,O=C1/C(=C/c2cccs2)CCC/C1=C\c1cccs1,inactive: 0.963
12,C[C@@H]1CN([C@@H](C)CO)C(=O)c2cccc(NC(=O)Nc3ccc4c(c3)OCO4)c2O[C@@H]1CN(C)Cc1ccc(-c2ccccc2)cc1,inactive: 1.02
13,CN1CCN(C(=O)C[C@@H]2CC[C@@H]3[C@H](COc4ccc(NC(=O)C5CCCCC5)cc4C(=O)N3C)O2)CC1,inactive: 1.02
14,CNc1nc(N2CCCC2)nc(N)c1[N+](=O)[O-],inactive: 0.994
15,Cc1ccc(S(=O)(=O)N(C)C[C@H]2Oc3ccc(NC(=O)CCN4CCOCC4)cc3CC(=O)N([C@H](C)CO)C[C@H]2C)cc1,inactive: 1.01
16,C[C@@H]1CN([C@H](C)CO)C(=O)c2cc(NS(=O)(=O)c3ccc(F)cc3)ccc2O[C@@H](C)CCCCO[C@H]1CN(C)C(=O)C1CCCCC1,inactive: 0.988
17,C[C@@H]1CN([C@@H](C)CO)C(=O)c2cccc(NS(=O)(=O)c3ccccc3)c2O[C@@H]1CN(C)S(=O)(=O)c1ccccc1,inactive: 1
18,C[C@H]1CN([C@@H](C)CO)C(=O)Cc2cc(NS(=O)(=O)c3ccccc3)ccc2O[C@@H]1CN(C)S(C)(=O)=O,inactive: 0.961
19,O=S1(=O)CCCCN1,inactive: 1.06
20,C[C@H]1CN([C@@H](C)CO)S(=O)(=O)c2ccc(C#CC3(O)CCCC3)cc2O[C@H]1CN(C)C(=O)Nc1ccccc1,inactive: 1.02
